Results taken from PubChem BioAssay AID1347165 (National Center for Advancing Translational Sciences (NCATS), 2019).
The campaign covered roughly 220,000 compounds. About 5,700 (2.6%) were called active. The inconclusive results got no clear call from the source; some entries with a clear call stand among them for comparison. Calls follow the shape of the dose curve; as a rule, active = well fitted inhibition curve with a large enough effect; inconclusive = small, poorly fitted or top-dose-only effect; inactive = no such curve, though single readings can be large or run the other way. Where the call is inconclusive, the potency comes from a doubtful curve fit.

The compounds below were run against Lysine-specific demethylase 5B (Homo sapiens) (UniProt Q9UGL1) (assay: Primary screen for KDM5B Histone Demethylases FDH-coupled qHTS). Conditions: FDH-coupled NADH fluorescence (FDH is formaldehyde dehydrogenase); series mostly up to 57.7 µM.
Method in brief: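 qHTS format, multiple compound concentrations. Buffer 50 mM HEPES pH 7.5/0.01% Tween-20; 200 nM KDM5BΔAP final; 10 min compound preincubation; substrate-mix levels 12.5 µM peptide, 25 µM α-KG, 0.25 mM NAD⁺; 30 min RT; ΔRFU.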
Also: nearly all actives have a fitted effect of over 70% in size.
Potency is read from the fitted curve at half-maximal effect; tags tell the direction and shape of the fitted curve.

UniProt Q9UGL1, sequence (Q9UGL1 whole entry, looked up): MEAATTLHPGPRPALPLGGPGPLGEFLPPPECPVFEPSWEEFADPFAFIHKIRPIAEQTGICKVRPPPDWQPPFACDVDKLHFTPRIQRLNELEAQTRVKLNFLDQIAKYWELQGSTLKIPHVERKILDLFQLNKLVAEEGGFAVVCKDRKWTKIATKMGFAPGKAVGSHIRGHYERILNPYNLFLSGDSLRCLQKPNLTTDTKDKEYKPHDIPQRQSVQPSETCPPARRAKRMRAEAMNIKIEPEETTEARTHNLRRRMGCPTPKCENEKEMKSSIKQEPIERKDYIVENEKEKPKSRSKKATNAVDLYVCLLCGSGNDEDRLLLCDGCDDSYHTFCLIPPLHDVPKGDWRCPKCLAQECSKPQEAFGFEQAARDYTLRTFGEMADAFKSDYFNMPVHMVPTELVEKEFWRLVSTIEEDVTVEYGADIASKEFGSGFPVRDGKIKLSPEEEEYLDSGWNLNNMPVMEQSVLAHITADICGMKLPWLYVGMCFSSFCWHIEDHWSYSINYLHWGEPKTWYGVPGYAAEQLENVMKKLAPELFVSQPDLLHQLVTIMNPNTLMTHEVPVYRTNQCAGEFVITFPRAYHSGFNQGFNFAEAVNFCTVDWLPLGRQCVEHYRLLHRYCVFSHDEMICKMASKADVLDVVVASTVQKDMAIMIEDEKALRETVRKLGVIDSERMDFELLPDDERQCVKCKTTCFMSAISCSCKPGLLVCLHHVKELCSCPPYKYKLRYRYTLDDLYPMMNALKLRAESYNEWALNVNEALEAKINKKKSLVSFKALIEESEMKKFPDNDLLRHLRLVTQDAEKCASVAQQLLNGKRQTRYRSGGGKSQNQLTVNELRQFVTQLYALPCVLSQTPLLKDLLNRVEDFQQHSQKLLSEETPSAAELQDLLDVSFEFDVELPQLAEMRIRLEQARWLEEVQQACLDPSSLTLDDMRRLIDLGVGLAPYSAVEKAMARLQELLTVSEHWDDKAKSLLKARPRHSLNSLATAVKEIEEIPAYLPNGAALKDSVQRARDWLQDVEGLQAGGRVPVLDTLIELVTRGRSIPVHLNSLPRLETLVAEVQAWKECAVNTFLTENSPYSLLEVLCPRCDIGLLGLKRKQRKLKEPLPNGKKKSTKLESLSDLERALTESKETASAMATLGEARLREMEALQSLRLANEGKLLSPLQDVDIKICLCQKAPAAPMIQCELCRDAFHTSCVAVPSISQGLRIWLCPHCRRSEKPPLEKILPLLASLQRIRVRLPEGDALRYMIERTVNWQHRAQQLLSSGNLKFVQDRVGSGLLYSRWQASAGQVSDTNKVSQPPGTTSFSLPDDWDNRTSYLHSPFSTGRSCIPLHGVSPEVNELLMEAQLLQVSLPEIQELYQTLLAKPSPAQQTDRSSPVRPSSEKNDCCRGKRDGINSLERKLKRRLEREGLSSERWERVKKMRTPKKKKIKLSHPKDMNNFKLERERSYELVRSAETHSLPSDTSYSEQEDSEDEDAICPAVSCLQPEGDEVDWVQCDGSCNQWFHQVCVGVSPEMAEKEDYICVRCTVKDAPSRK

Structure (SMILES) | Potency
Cc1ccc(/C(=N/O)c2cccs2)cc1 | inactive
Cc1cc(Cl)ccc1S(=O)(=O)NCCCC(=O)O | inactive
COc1ccc(NC(=O)CSC2=Nc3ccccc3C3=NC(CCC(=O)NCc4cccs4)C(=O)N23)cc1 (stereo not given) | inconclusive: 35.5 µM [inhibitor, single point]
CC(=O)Nc1ccc(N2C(=O)C(=O)/C(=C(/O)c3ccccc3)C2c2ccccc2)cc1 (stereo not given) | inactive
Cc1cccc(OCCN(C)Cc2cc(=O)oc3c(C)c(O)ccc23)c1 | inconclusive: 25.1 µM [inhibitor, partial curve, poor fit]
CCOc1ccc(-c2noc(-c3nc(C)no3)n2)cc1 | inconclusive: 39.8 µM [inhibitor, single point]
CC(=O)Nc1ccc(C2(C(=O)NCc3cccs3)CCC2)cc1 | inactive
Cc1ccc(F)cc1NS(=O)(=O)c1ccc(N2CC(C(=O)O)CC2=O)cc1 (stereo not given) | inactive
COc1ccc(CN(C)C(=O)Cn2nc(C(=O)O)c3ccccc3c2=O)cc1 | inactive
O=C(Nc1onc2c1CCCC2)c1cccc(Cl)c1 | inactive
Cc1nn(-c2ccc(F)cc2)c(-n2cccc2)c1C(=O)N1CCN(c2ccccc2)CC1 | inconclusive: 25.1 µM [inhibitor, single point]
Cc1cc2nn(-c3ccccc3)nc2cc1NC(=O)COc1ccc(Cl)cc1 | inconclusive: 25.1 µM [inhibitor, single point]
C=CCCC(CN1CCCOCC1)Oc1ncc(Cl)cn1 (stereo not given) | inconclusive: 8.91 µM [inhibitor, partial curve]
Cc1ccsc1CN1CCCN(S(=O)(=O)c2ccccc2)CCC(=O)NCC1 | inactive
O=C(c1ccc2ccnn2c1)N1CCOCC1 | inconclusive: 31.6 µM [inhibitor, single point]
Cc1ccc(NC(=O)CN(Cc2cccs2)CC2CCCO2)cc1 (stereo not given) | inactive
CCCCCc1ccc(-c2ccc(CCCCC)cn2)cc1 | inactive
CCN(CC)c1cc(C)c(C#N)c2nc3ccccc3n12 | inconclusive: 25.1 µM [inhibitor, partial curve, poor fit]
CCOC(=O)C1CCC(CNC(=O)Nc2c(NC3CCCCC3)c3ccccc3oc2=O)CC1 (stereo not given) | inactive
C1=C(c2nc(-c3cncnc3)cc3c2ccn3Cc2cccnc2)CCOC1 | inconclusive: 31.6 µM [inhibitor, single point]
COc1ccc2c(c1)c(C(C(=O)O)N1CCN(CCC#N)CC1)cn2CCC(=O)O (stereo not given) | inactive
CC(=O)N1CCCC2(C1)CN(C)c1ccc(C(=O)NCC3CC3)cc12 (stereo not given) | active: 28.2 µM
Cc1nn(-c2nc3c(c(=O)n(CC(N)=O)c(=O)n3C)n2Cc2ccccc2)c(C)c1C | inactive
COc1ccc(C2Cn3cnc(C(=O)N4CCC(C(=O)NCc5ccco5)CC4)c3CO2)cc1 (stereo not given) | inactive

Structure (SMILES) | Potency
COc1ccccc1-n1cc(C(=O)NC2CCCN(C3CCCCCC3)C2)cn1 (stereo not given) | inconclusive: 39.8 µM [inhibitor, single point]
COc1cccc(S(=O)(=O)N2C[C@@H](Oc3ccccc3)C[C@@H]2C(=O)N2CCOCC2)c1 | inactive
O=C(c1ccc(N2CC3CC(C2)[C@H]2CCCC(=O)N2C3)nc1)N1CCN(c2ccccn2)CC1 (stereo not given in full) | inconclusive: 31.6 µM [inhibitor, partial curve]
COc1ccc(-c2cc3ccc(OS(C)(=O)=O)cc3oc2=O)cc1 | inconclusive: 2 µM [inhibitor, full curve, poor fit]
COc1ccc(Br)c2c1-c1nc(NC(=O)c3ccccc3F)sc1C2 | inconclusive: 28.2 µM [inhibitor, single point]
O=C1c2cnc(-c3ccsc3)nc2OCCN1c1cccc(C(F)(F)F)c1 | inactive
Cn1c([C@H]2CCN(Cc3ccc4c(c3)OCO4)C2)nc2ccccc21 | inconclusive: 25.1 µM [inhibitor, partial curve, poor fit]
COc1ccc(C(=O)N[C@@H]2CCC[C@@H]2C(=O)NCc2cccnc2)cc1 | inactive
CC(=O)Nc1ccc(-n2c(CCC(=O)O)ccc2-c2ccc(Br)cc2)cc1 | inconclusive: 28.2 µM [inhibitor, partial curve, poor fit]
Cc1noc(C)c1-c1cc2cc(C(C)C)oc2c(-c2cccc(CO)c2)n1 | inconclusive: 31.6 µM [inhibitor, partial curve, poor fit]
COc1ccc(Cl)cc1NC(=O)Cn1c(=O)n(Cc2cccs2)c(=O)c2cccnc21 | inconclusive: 3.16 µM [inhibitor, partial curve, poor fit]
O=C(NC[C@H]1O[C@@H](CC(=O)N2CCN(c3ccc(F)cc3)CC2)[C@H](O)[C@@H]1O)c1cccc(F)c1 | inactive
Cc1c(O)ccc2c(CN3CCN(c4cccc(C(F)(F)F)c4)CC3)cc(=O)oc12 | inconclusive: 25.1 µM [inhibitor, partial curve, poor fit]
O=C1N(Cc2cccc(F)c2F)CCCC1(O)CN1CCN(CC2CCC2)CC1 (stereo not given) | inactive
COc1cc(NC(=O)CSc2nc(Cl)nc3nc[nH]c23)cc(OC)c1OC | inactive
CC(C)(O)C#Cc1ccc(-c2nccn2-c2cccc(-n3cncn3)c2)cc1 | inconclusive: 28.2 µM [inhibitor, single point]
Cc1nc(CCNC(=O)c2c[nH]c3ccccc23)cs1 | inactive
CCCCCCSC1=C(C#N)C(c2ccccc2C)CC(=O)N1 (stereo not given) | inactive
CCc1ccc(-c2noc(CCC(=O)Nc3nc4ccccc4n3CC)n2)cc1 | inactive
Cc1cc(NC2CCCC2)n2nc(C)c(-c3ccccc3)c2n1 | inconclusive: 25.1 µM [inhibitor, partial curve, poor fit]
CCOc1ccc(NC(=O)C(C)Nc2ccc3oc(C)nc3c2)cc1 (stereo not given) | inconclusive: 17.8 µM [inhibitor, partial curve, poor fit]
COc1ccc(-c2cc(C(=O)N3CCCN(C(C)=O)CC3)c3ccccc3n2)cc1 | inconclusive: 31.6 µM [inhibitor, partial curve, poor fit]
O=C(CNc1cccc2ccccc12)N/N=C/c1ccc[nH]1 | inconclusive: 25.1 µM [inhibitor, single point]
CCCN(C(=O)c1cc2ccc3cccnc3c2[nH]1)c1ccc(F)cc1 | inconclusive: 17.8 µM [inhibitor, partial curve, poor fit]

Structure (SMILES) | Potency
O=C(NC[C@H]1O[C@@H](CC(=O)N2CCc3ccccc32)[C@H](O)[C@@H]1O)c1ccco1 | inconclusive: 39.8 µM [inhibitor, partial curve, poor fit]
CCn1c(=O)n(-c2ccc(F)cc2)c(=O)c2sc3ccccc3c21 | inconclusive: 1.41 µM [inhibitor, full curve, poor fit]
CCn1cc(CN2CCN(S(C)(=O)=O)CC2)ccc1=O | inconclusive: 12.6 µM [inhibitor, partial curve]
Cc1cccc(C)c1NC(=O)CCC1CCCC1 | inactive
Cc1cccc(-c2cccc3c4c([nH]c23)[C@@H]2C[C@H]3[C@@H](CN2CC4)[C@H](C)ON3C)c1 | inconclusive: 20 µM [inhibitor, partial curve, poor fit]
CCc1ccc(CNC(=O)C2CCN(c3cc(C(F)(F)F)nc(C)n3)CC2)cc1 | inconclusive: 35.5 µM [inhibitor, single point]
Cc1ccccc1N(C)C1CN(C(=O)c2ccc(C(F)(F)F)cc2)C1 | inconclusive: 44.7 µM [inhibitor, partial curve, poor fit]
O=C(NC1CCCCC1)c1[nH]c2ccccc2c1Cl | inactive
CN[C@H]1C[C@H]2c3[nH]c4cccc(-c5cccc(F)c5)c4c3CCN2C(=O)[C@H]1[C@H](C)O | inconclusive: 2.51 µM [inhibitor, full curve, poor fit]
CC(C)N1C(=O)C2(CCCC2)C1C(=O)Nc1ccc2c(c1)N(C)CCC2 (stereo not given) | active: 31.6 µM
CNC(=O)/C(C#N)=C/c1cccc(Oc2ccccc2)c1 | inconclusive: 22.4 µM [inhibitor, single point]
COc1cccc(-c2cc3c(=O)n(CCNC(=O)c4ccc(C#N)cc4)ccn3n2)c1 | inconclusive: 20 µM [inhibitor, partial curve, poor fit]
COc1ccc(CNC(=O)C[C@@H]2C[C@@H](C(C)C)[C@H](CNC(=O)c3cccnc3)C=C2C)cc1 | inconclusive: 22.4 µM [inhibitor, single point]
O=C(COc1ncnc2ccc(Br)cc12)NCc1ccccc1 | inactive
Cc1nc(-c2ccc(Cl)cc2)sc1CCNC(=O)Cc1ccc(F)cc1 | inconclusive: 35.5 µM [inhibitor, partial curve, poor fit]
O=C(O)C[C@@H]1CCN(C(=O)C2CCCC2)C[C@@H]1CCN1CCN(c2ccccn2)CC1 | inconclusive: 28.2 µM [inhibitor, single point]
O=C(NCc1cccc(C(F)(F)F)c1)c1n[nH]c2c1CCCC2 | inactive
CCOc1nccnc1NC1CCN(C(=O)Cc2cccs2)CC1 | active: 31.6 µM
C[C@@H]1CN(C[C@@H]2CN(C(=O)c3ccsc3)C[C@@H]2CO)C[C@H](C)O1 | inactive
O=C(NCc1ccccn1)C1(CCO)CCN(c2ncccn2)C1 (stereo not given) | inconclusive: 28.2 µM [inhibitor, partial curve, poor fit]
CCN1C(=O)Cc2ccccc2C1C(=O)NCc1ccc(C)cc1 (stereo not given) | inconclusive: 11.2 µM [inhibitor, partial curve]
O=C(c1ccco1)N1CC(Oc2cccc(-c3nc(-c4ccccc4)no3)c2)C1 | inconclusive: 10 µM [inhibitor, partial curve]
